The assay concerns End1 endocervical cells challenged with G. vaginalis 49145 or 14018. The text has this: FIG. 3A-E: Mucin and D-fucose can prevent G. vaginalis killing of End1 cervical cells in vitro, potentially by reducing the expression of vaginolysin. […] To assess the protective ability of MUC5B, it can be added to apical surface of the cells. The cells can then be challenged with G. vaginalis, and the percentage of endocervical cell death can be recorded. […] (FIG. 3D) A key mechanism by which G. vaginalis kills endocervical cells is by secreting the cholesterol-dependent cytolysin vaginolysin (vly). […] We measured vaginolysin expression by RT-qPCR.
Given that mucin and D-fucose are able to suppress biofilm formation by G. vaginalis 49145 and 14018, we next wondered whether this effect translated into reduced virulence against epithelial cells. To test this, we used an endocervical cell line model (End1), introduced these strains as a pathogen challenge, and then measured the viability of the endocervical cells after 24 hours (FIG. 3A). In the control, challenging End1 cells with either strain of Gardnerella results in almost 90% cell death.

Experimental findings from patent US20230398178A1, “METHODS AND COMPOSITIONS FOR TREATING OR PREVENTING A VAGINAL INFECTION OF GARDNERELLA VAGINALIS” (Massachusetts Institute of Technology, priority 2022, published 2023) are described below.

Like-named read-outs stand apart in the source and are kept apart here.

`CC(=O)N[C@H]1[C@H]([C@H](O)[C@H](O)CO)OC(O)(C(=O)O)C[C@@H]1O` (stereo partly drawn) [NeuNAc, N-acetyl D-neuraminic acid, reference compound]: the “effect on endocervical cell death / killing, in words” value is “did not add to or protect against cell killing”.

As to “MUC5B: mucin glycoprotein, predominant in cervicovaginal fluid, purified from pooled human saliva and reconstituted into gels”, the “effect on endocervical cell death / killing, in words” value (End1 cells challenged with G. vaginalis 49145 or 14018, viability after 24 hours, listed as mucin) is “significant reduction in cell death”.
